In PubChem BioAssay AID1159614 (National Center for Advancing Translational Sciences (NCATS), 2016):
About 65 (0.1%) of roughly 45,000 compounds were called active. The call rests on the fitted dose curve; in most records, active means well fitted activation curve with a large enough effect; inconclusive means small, poorly fitted or top-dose-only effect; inactive means no such curve, though single readings can be large or run the other way. The list shows a part of the results.

The compounds below were run against Galactocerebrosidase (Homo sapiens) (UniProt P54803) (assay: A Novel Cell-Based Assay to Identify Small Molecules for B -Galactocerebrosidase). Conditions: 145M-Twi-hGALC-G270D cells (Twitcher mouse brain line with human GALC G270D), HMU-beta-Gal fluorescence, 48 h; series mostly up to 57.5 µM; activation: at the top concentration.
Outline: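 Live 145M-Twi cells (Twitcher mouse brain-derived, GALC-null) stably expressing human GALC-G270D, with a wild-type GALC line, were compound-treated. Residual GALC activity was then read as fluorescence from 0.1 mM final HMU-β-gal at pH 5.2; higher signal means activation.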
Further: 0% is about no effect; nearly all actives have a fitted effect of over 65% in size.

UniProt P54803, sequence (P54803 whole entry, looked up): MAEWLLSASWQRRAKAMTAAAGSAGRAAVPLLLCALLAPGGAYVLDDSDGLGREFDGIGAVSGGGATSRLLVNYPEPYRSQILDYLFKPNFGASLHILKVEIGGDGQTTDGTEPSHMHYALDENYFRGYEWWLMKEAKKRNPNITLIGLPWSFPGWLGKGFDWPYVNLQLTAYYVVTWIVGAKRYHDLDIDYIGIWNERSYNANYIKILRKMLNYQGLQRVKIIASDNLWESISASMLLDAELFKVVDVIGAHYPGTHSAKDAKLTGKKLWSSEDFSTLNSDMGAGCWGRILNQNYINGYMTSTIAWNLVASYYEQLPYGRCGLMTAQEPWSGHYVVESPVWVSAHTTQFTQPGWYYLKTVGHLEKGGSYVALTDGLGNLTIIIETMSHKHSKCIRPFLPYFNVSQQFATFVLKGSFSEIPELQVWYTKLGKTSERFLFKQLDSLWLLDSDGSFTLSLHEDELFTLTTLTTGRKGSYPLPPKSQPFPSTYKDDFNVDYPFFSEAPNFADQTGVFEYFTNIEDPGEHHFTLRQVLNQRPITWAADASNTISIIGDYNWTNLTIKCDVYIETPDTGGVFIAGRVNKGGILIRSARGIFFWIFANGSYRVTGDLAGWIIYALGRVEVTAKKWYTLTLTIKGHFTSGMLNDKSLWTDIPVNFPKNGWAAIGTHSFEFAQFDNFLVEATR

activation, inactive:
COc1ccc(Cn2c(=O)c3cccnc3n(Cc3cccc(F)c3)c2=O)cc1 -33.1%
COc1ccc(-c2nc(SCC(=O)Nc3c(C)cc(C)cc3C)n[nH]2)cc1 -10.7%
COc1ccccc1CNC(=O)c1ccc2nc(CCc3ccccc3)oc2c1 -18.3%
COc1ccc(-c2cc3nc(C)c(CCC(=O)NC4CCCCC4)c(C)n3n2)c(OC)c1 -20.6%
CC(C)Oc1ccc(C(=O)N(Cc2ccco2)Cc2cccs2)cc1 -7.19%
COc1ccccc1NC(=O)c1c(C)cc(C)nc1SCC(=O)c1ccc(Cl)cc1 -10%
CCOC(=O)c1ccccc1NC(=O)CSc1nccn1Cc1ccco1 -14%
Cc1cc(OCC(=O)N(Cc2ccc(N(C)C)cc2)CC2CCCO2)ccc1Cl (stereo unspecified) -12.5%
Cc1cccc(C)c1NC(=O)c1sc(-n2nc(C)c(Cc3ccccc3)c2C)nc1C -11.8%
O=C(CSc1ncc(S(=O)(=O)c2ccc(Cl)cc2)c(=O)[nH]1)Nc1cccc(C(F)(F)F)c1 -10.2%
Cc1ccc(-c2ccc(=O)n(CC(=O)NCCc3ccc(Cl)cc3)n2)cc1 -6.11%
O=C(Nc1ccc2nc(SCCOc3ccccc3)sc2c1)c1ccccc1F -10.7%
CCCCNS(=O)(=O)c1ccc(N2CCCCS2(=O)=O)cc1 -19.7%
Cc1ccc(CSC2=Nc3ccccc3C3=NC(CC(=O)NCc4cccs4)C(=O)N23)c(C)c1 (stereo unspecified) -8.55%
CCc1ccc(N(CC)C(=O)CCn2cnc3onc(-c4ccc(F)cc4)c3c2=O)cc1 -6.27%
COc1ccc(-c2cn3c(n2)sc2cc(C(=O)Nc4cccc(SC)c4)ccc23)cc1 -0.495%
CCOC(=O)c1c(C)c(-c2ccccc2)n(CC(=O)Nc2ccc(OCC)cc2)c1C 0.114%
COc1cccc2c1cc1c(=O)n(CC(=O)N3CCN(c4cccc(Cl)c4)CC3)nc(C)n12 -10.9%
COc1ccc(NC(=O)c2c(NCc3cccs3)sc3c2CCCC3)c(OC)c1 -10.5%
COC(=O)C(CCSC)NC(=O)Cn1ncc2c([nH]c3ccccc32)c1=O (stereo unspecified) -4.28%
CCCOc1ccc(CNC(=O)c2ccc3c(c2)N(Cc2ccccc2)CCS3)cc1 -20.5%
O=C(OCc1cc(=O)n2nc(-c3cccs3)sc2n1)c1ccccc1 -11%
CC(=O)n1nc(-c2cccnc2)nc1NCc1ccc(F)cc1 -14.3%
CCOc1ccc(NC(=O)c2c(NCc3ccc(C)o3)sc3c2CCCCC3)cc1 -25.5%
Cc1ccc(CNC(=O)CN2C(=O)CSc3ccc(S(=O)(=O)N(C)C)cc32)cc1 6.93%
CCn1cc(C(=O)OCC(=O)Nc2cc(OC)cc(OC)c2)c(=O)c2ccc(C)nc21 -9.8%
O=C1c2oc3ccccc3c(=O)c2C(c2ccc(O)cc2)N1Cc1ccc2c(c1)OCO2 (stereo unspecified) -15.4%
O=C(c1ccc(Cl)cc1)N1CCC(c2nc3ccccc3o2)CC1 -16.3%
Cc1nn(C)c2c1c(-c1ccccc1)cc(=O)n2Cc1ccccc1C#N -0.745%
CC(C)CN(CCCNC(=O)c1cc(-c2cccs2)nc2ccccc12)CC(C)C 5.86%
CCN1CCN(CCCNC(=O)c2cnn(-c3ccccc3Cl)c2C2CCN(C(=O)OC(C)(C)C)CC2)CC1 0.186%
CCOC(=O)C1CCCN(c2c(C(=O)c3ccc(OCC)cc3)cnc3ccccc23)C1 (stereo unspecified) -9%
Cc1cc(OCC(=O)Nc2c(C(=O)c3ccccc3)oc3ccccc23)cc(C)c1Cl -14.1%
Cc1cccc(C)c1NC(=O)Cn1nnc(C(=O)Nc2c(C)cccc2C)c1N -5.96%
CCCCc1nn2c(=O)cc(COC(=O)c3cccc(Cl)c3)nc2s1 -7.42%
O=C(c1ccccc1)c1cn(Cc2ccc(F)cc2)c2ccccc2c1=O -9.99%
O=C(CCC1N=C2c3ccccc3N=C(SCc3cccc(F)c3)N2C1=O)NCCc1ccccc1 (stereo unspecified) -5.45%
Cc1cc(F)ccc1NC(=O)C1CCN(C(=O)c2cnn(-c3ccccc3)c2-n2cccc2)CC1 -15.9%
COc1ccc(C)cc1NC(=O)CCNC(=O)Cn1ccc2ccccc2c1=O 10.6%
COc1ccc(NC(=O)c2oc3ccccc3c2NC(=O)Cc2coc3cc(C)ccc23)cc1 -14.6%
CCOC(=O)c1c(C)[nH]c(CCC(=O)NCc2cccc(C)c2)c1C -7.52%
CN1C(=O)Cc2cc(S(=O)(=O)CCC(=O)Nc3ccc(Cl)c(C(F)(F)F)c3)ccc21 -6.18%
Cc1ccc(CNC(=O)CN2C(=O)CSc3c2c(C)nn3-c2ccccc2)cc1 -4.5%
O=C(NCc1ccccc1Br)c1ccc2c(c1)nc1n2CCOC1 -3.19%
Cn1c(-c2ccccc2)cnc1NCc1ccccc1O -13.4%
CCCNC(=O)COCc1cc(-c2ccc(F)cc2)on1 -14.4%
O=C(CCC1N=C2c3ccccc3N=C(SCc3ccccc3F)N2C1=O)NCc1ccccc1 (stereo unspecified) -10.9%
COc1ccc(-n2ncc(C(=O)Nc3ccc4c(c3)OCO4)c2C2CCN(C(=O)OC(C)(C)C)CC2)cc1 -16.1%
Cc1ccc(NC(=O)Cn2cc(S(=O)(=O)Cc3cccc(Cl)c3)c3ccccc32)cc1C -13.8%
COc1ccc(C2=C(C)C(=NCCCN3CCN(c4cc(Cl)ccc4C)CC3)NS2(=O)=O)cc1 -12.3%
COc1ccc2oc(-c3ccc(C)c(NC(=O)c4ccc5c(c4)OCCO5)c3)nc2c1 1.24%
O=C(Cn1nc(-c2ccccc2)c2c(c1=O)CCCC2)Nc1ccc(F)c(Cl)c1 -28.4%
COc1cccc(NC(=O)N(Cc2c[nH]c3ccccc23)C2CCCCCC2)c1 -12.4%
CN(C(=O)c1cc2c(Cl)nc3ccccc3c2s1)c1cccc(C(F)(F)F)c1 -8.94%
CCn1c(C(=O)Nc2c(C)cccc2C)cc2sc(Cl)cc21 -9.73%
CCn1c(=O)c2cc(C(=O)NC3CCC(C)CC3)sc2c2ccccc21 (stereo unspecified) -14%
Cc1ccccc1NS(=O)(=O)c1ccc2[nH]cc(C(=O)NC3CCCCC3)c(=O)c2c1 -11.5%
COc1ccc(NC(=O)c2cc3c(=O)n(Cc4cccs4)ccc3nc2C)cc1 -20.8%
Cc1ccc(NC(=O)c2c(NC(=O)c3ccc(F)cc3)sc3c2CCCC3)cc1C -17.8%
COc1ccc(-n2c(C)nnc2SCc2nc(-c3ccc(OC)c(OC)c3)no2)cc1 -15.3%
COc1ccc(OC)c(NC(=O)Cn2c(=O)n(-c3cccc(C)c3)c(=O)c3c2c2cc(C)ccc2n3C)c1 -0.64%
CCc1ccccc1N(C)C(=O)Cn1cnc2sc(C)c(S(=O)(=O)N3CCC(C)CC3)c2c1=O -12.1%
CCOc1ccc(-n2c(SCC(=O)Nc3cc(C)on3)nc3c([nH]c4ccccc43)c2=O)cc1 -14%
COc1cccc(CNC(=O)CCCn2nc(C)c3sc4ccccc4c3c2=O)c1 -5.59%
CCOC(=O)c1c(C)oc2nc(C)nc(N3CCN(c4cc(Cl)ccc4C)CC3)c12 -8.51%
CCOC(=O)c1cc(OC(=O)c2cc(OC)c(OC)c(OC)c2)n(-c2ccccc2)n1 -1.51%
COc1ccc(N(CC(=O)N2CCN(c3ccccc3)CC2)S(=O)(=O)c2c(C)nn(C)c2C)cc1 -8.41%
O=C(Cc1ccccc1)N(Cc1cccnc1)c1nc2c(Cl)cccc2s1 -0.843%
COc1ccc(-c2cc3nc(C)c(CCC(=O)NCc4ccccc4Cl)c(C)n3n2)c(OC)c1 -21.9%
COc1ccc(C)cc1NC(=O)Cn1c(=O)oc2cc(S(=O)(=O)N3CCCCC3)ccc21 -12.1%
Cc1ccc(Nc2ccc3cc(S(=O)(=O)N4CCCCC4)ccc3n2)cc1F -8.49%
CCn1cc2nc(SCC(=O)Nc3ccc(OC)c(Cl)c3)n(Cc3ccc(OC)cc3)c(=O)c2n1 0.83%
CCOC(=O)c1ccc(NC(=O)CSc2nc(-c3ccc(OC)cc3)cc(C(F)(F)F)c2C#N)cc1 -11.1%
CCc1nnc(SC(CC)C(=O)Nc2ccc(OC)c(Cl)c2)c2cc3occc3n12 (stereo unspecified) -15.5%
CCOc1ccc(NC(=O)NCCN2CCN(c3cccc(C)c3C)CC2)cc1 -16.6%
CCc1cccc(C)c1NC(=O)C1CCN(S(=O)(=O)c2c(C)noc2/C=C/c2c(C)cc(C)cc2C)CC1 -17.4%
N#Cc1nc(COc2ccccc2Cl)oc1NCCc1ccccc1 -13.1%
O=C(CCC1CCCC1)N1CCc2c([nH]c3ccccc23)C1c1ccc(F)cc1 (stereo unspecified) -8.63%
CC(=O)c1ccc(NC(=O)c2cn(-c3ccccc3)nc2-c2ccc(Br)cc2)cc1 -6.98%
Cc1ccc(NC(=O)Nc2cccc(C)n2)cc1 -1.16%
Cc1cc(C)c(NS(=O)(=O)c2ccc3c(c2)CC(C)N3C(=O)C2CCC2)c(C)c1 (stereo unspecified) -14.1%
CCOc1ccc(C2CC(=O)NC(NC(=O)c3cccc(Cl)c3)=N2)cc1 (stereo unspecified) -12.2%
COc1ccccc1Nc1nc(-c2ccc(F)cc2)c2c(n1)-c1ccccc1OC2 -5.63%
COc1ccccc1CNC(=O)CCCn1c(=O)c2ccccc2n(Cc2ccc(F)cc2)c1=O 19.7%
Cc1ccc(CCNC(=O)CN(c2cc(C)cc(C)c2)S(=O)(=O)c2c(C)noc2C)cc1 13.7%
COc1cccc(-n2ccn(CC(=O)NCc3ccc(C)cc3)c(=O)c2=O)c1 0.349%
COc1ccccc1NC(=O)c1c(C)cc(C)nc1SCC(=O)Nc1ccc(C)c(C)c1 -21.3%
CCOC(=O)c1nnn(CC(=O)Nc2cc(C)cc(C)c2)c1C(=O)OCC -16.5%
COc1ccccc1CNC(=O)c1cc2cccc3c2n1CC(C)S3 (stereo unspecified) -19.3%
COc1ccc(NC(=O)CC2C(=O)N(c3ccccc3)C(=O)N2C2CCCCC2)cc1 (stereo unspecified) -8.69%
CS(=O)(=O)N(CC(=O)NCCSCc1ccccc1)c1cc(C(F)(F)F)ccc1Cl -18.2%
O=C(Cn1cnc2onc(-c3ccc(F)cc3)c2c1=O)Nc1cccc(C(F)(F)F)c1 -53.7%
CCOC(=O)c1ccc(NC(=O)c2nc(SC(C)C)ncc2Cl)cc1 -7.15%
Cc1ccc(CNC(=O)CCCN2C(=O)CCn3nc(-c4cn(C)c5ccccc45)cc32)cc1 -6.28%
Cc1nc2c(-c3ccccc3)c(C)nn2c(C)c1CCC(=O)NCc1ccc(Cl)cc1 -8.27%
COc1ccc(CCNS(=O)(=O)c2ccc(N3CCCCS3(=O)=O)cc2)cc1OC -10.4%
